Measured values as given in the supplement of paper PMC3334620.
Over roughly 33,000 sequences, “E-score (-0.5 to 0.5)” has its median near -0.016; the highest 2% begin near 0.32. This is one part of the list.

target: T1, Stp1 (UniProt B3LFK1); test: PBM E-score (8-mer binding enrichment) (E-score (-0.5 to 0.5)); higher = stronger / more preferred TF binding; most listed sequences are background and not binding sites; settings: protein concentration: 200 nM; construct: GST-full length
T1 sequence: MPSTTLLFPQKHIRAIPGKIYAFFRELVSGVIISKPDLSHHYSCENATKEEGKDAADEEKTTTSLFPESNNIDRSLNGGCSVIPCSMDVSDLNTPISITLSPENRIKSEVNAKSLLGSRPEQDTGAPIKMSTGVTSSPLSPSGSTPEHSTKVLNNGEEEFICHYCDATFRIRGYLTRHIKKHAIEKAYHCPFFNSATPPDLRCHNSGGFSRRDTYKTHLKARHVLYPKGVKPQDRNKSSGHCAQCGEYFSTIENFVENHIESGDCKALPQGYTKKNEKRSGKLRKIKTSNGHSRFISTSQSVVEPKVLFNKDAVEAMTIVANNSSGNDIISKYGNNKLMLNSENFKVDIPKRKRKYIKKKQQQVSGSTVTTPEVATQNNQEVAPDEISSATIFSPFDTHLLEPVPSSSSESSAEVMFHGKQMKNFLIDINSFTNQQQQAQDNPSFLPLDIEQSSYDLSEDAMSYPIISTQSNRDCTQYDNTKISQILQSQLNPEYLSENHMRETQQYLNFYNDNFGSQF
Outline: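 Using PURExpress in vitro transcription/translation, GST-tagged yeast transcription factors were made in full-length or DNA-binding-domain form. These were applied at about 100-200 nM to double-stranded universal all-10-mer Agilent arrays, and bound protein was detected with fluorescent anti-GST. Scans were normalised with masliner before the Universal PBM Analysis Suite assigned E-scores to ungapped eight-base words pooled with their reverse complements.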

Sequence | PBM E-score
ATGCCCGC | -0.0196
CACATGAG | -0.165
CGCACCCG | 0.0358
TCGACGAA | -0.0569
TCCGGAAA | -0.078
GTTAGGAA | -0.0205
GCCAGCAC | -0.184
GCGCAAAC | 0.0893
GCTGCAAC | -0.0261
ATGTGTTC | 0.0508
AGGGCAAA | 0.0608
CATACGGA | 0.268
CATGAAAG | 0.0343
CCGGGCGC | -0.223
AGCGAGGA | -0.162
AGTGTAAT | -0.0454
AAACGGCG | 0.481
CACTAAAC | 0.137
GGTGGGGA | -0.0651
AAACTGTA | 0.0673
ACAATTTG | -0.00284
AGCGTCGC | -0.0935

Sequence | PBM E-score
ATGACACG | 0.0757
AAACCGAG | -0.0477
AAGCAGGG | -0.156
AGGACGGA | -0.161
GCATAATA | 0.243
CCGGGCGA | -0.196
ACTACAGC | -0.14
CTGTCCAC | -0.101
CCACGAGG | 0.0778
AAATATAA | 0.241
CATGCCCC | -0.0965
TGTTGGAA | 0.216
AGACTTGA | -0.176
GCATGCGC | 0.0948
AGTACAAT | 0.241
AACACGCA | 0.0508
CGTCTCCC | 0.00795
AGCGGGTA | 0.0396
CGTCTTAC | -0.0611
CCCTTACG | -0.124
CCGAAATC | -0.0492
CATATCTA | 0.137

Sequence | PBM E-score
TGTGCAAA | -0.111
GGCTCAAC | 0.0514
CTCGTAGC | -0.0256
ATCTGTTC | -0.086
GGATGTAA | 0.102
CACTTTAG | 0.0106
ATTGAGAC | -0.0134
GGATTCTA | -0.123
GGGCAGAA | 0.0536
ATCGCCTG | -0.135
CGGGCGAG | -0.204
GCAGAGGC | -0.153
AAATAACG | 0.206
AGACGCAA | 0.0534
GAGCGTGC | 0.032
ATCGCAGG | -0.189
ATATTTGC | 0.289
AGCAGATC | -0.0187
GTTACACA | 0.151
AGGGTTCA | -0.0115
CGTTACAG | -0.00637
CCAACAAG | 0.00906

Sequence | PBM E-score
GTAATGTA | -0.0604
AGTGGTCC | -0.116
CCTGGTAC | 0.0102
CTATTTTA | 0.00178
ATCGTTAA | -0.0863
CGTTGGCC | -0.124
ACCCTGTA | -0.103
AAGGCTAG | 0.0823
CAGAGGGG | -0.311
CTCTATTA | 0.0457
ACTGTACT | -0.156
ATCATGTC | 0.00425
ATAATAGG | 0.035
GGGAACAA | -0.0413
CGAGGGAA | -0.0331
CTATTGGC | -0.00467
GAGTGAGC | -0.123
AGTCCGCG | 0.0108
AAGGTCAG | -0.212
CGGGTTAG | -0.232
AATTGAGC | 0.0156
CCAACTCC | -0.00244

Sequence | PBM E-score
TCGGGGAA | -0.0714
CCCACGAC | -0.235
ACACTGTC | -0.0844
ACGAAGAT | 0.111
CGCATAGC | 0.0422
GCGGAGCA | 0.0438
AAGCACTC | -0.0548
AATTTCAC | 0.122
ACTCGTCT | -0.0843
ACATCTTA | -0.0452
GGACATCC | -0.0445
ACAGCAGA | -0.101
CCAAAGGG | -0.0374
CCTACACG | -0.112
CCTTGCGC | 0.138
GAGTCTAC | -0.203
CAGGGGGA | -0.414
ATGTTGAC | 0.0447
CTATGCTA | -0.0393
ATATCGAT | 0.127
AAAGCTTC | -0.205
